Hit rate of the full screen: of about 150,000 compounds, about 540 (0.36%) showed an effect of 50% or more. The list shows a part of the results.

The values that follow come from ChEMBL document CHEMBL4888484, “Replenishing the malaria drug discovery pipeline: Screening and hit evaluation of the MMV Hit Generation Library 1 (HGL1) against asexual blood stage Plasmodium falciparum ,using a nano luciferase reporter read-out” (2022).

This experiment concerns Plasmodium falciparum. The experiment is described as follows: Primary screen in NF54 nanoGlo assay, in single point, at 2uM, 72h; a lower Z score goes with more inhibition. The following applies: timepoint 72 hour. The format is functional, Erythrocyte.
What is called % Inhibition is the relative decrease from the control value, in per cent. On to `COc1cc(NC(=O)c2scnc2C)ccc1N1CCOC1=O`, for which the “% Inhibition” value is on record as -12% and the Z score was determined as 2.
For `C[C@@H](CC(=O)NCCc1ccco1)n1cccn1` the same measures were 0% and 0.06.
As for `CC[C@H]1CC[C@@H](C)N(C(=O)c2ccc(C(N)=O)cn2)C1`, the “% Inhibition” value is -12% and the Z score turned out to be 1.47.
For `CCn1ccc(C(=O)N[C@H]2CN(Cc3ccncc3)C[C@@H]2C(=O)NC)n1` the same measures were 1% and -0.15.
For `CN1CC2(CCN(C(=O)c3ccc[nH]3)CC2)C[C@@H](c2ccccc2)C1=O` the same measures were -9% and 1.35.
For `COC(=O)c1cc(NC(=O)CN(C)S(=O)(=O)c2ccc3c(c2)OCCCO3)c(F)cc1F` the same measures were -4% and 0.51.
As to `CNc1snc(C)c1C(=O)N1CCC(Cc2ccccc2)CC1`, the “% Inhibition” value is reported as -7% and the Z score was found to be 0.66.
For `Cc1ncc(C(=O)N2C[C@H]3CN(C(=O)c4ccccc4)C[C@@]3(c3nc(C)no3)C2)cn1` the same measures were -16% and 2.12.
For the compound `N[C@H]1CCN(c2nc(-c3ccccc3)cc(-c3ccco3)n2)C1`, the “% Inhibition” value was found to be 0% and the Z score is -0.05.
For `C[C@]1(C(=O)O)CCN(C(=O)c2ccc(Oc3ccccc3)o2)C1` the same measures were -8% and 1.11.
For `COc1ccc(S(=O)(=O)N2CC(=O)N(CC3CC3)C3(CCCCC3)C2)cc1` the same measures were 1% and -0.09.
For `Cc1[nH]c2c(F)cc(F)cc2c1CCN[C@H]1CCOC2(CCOCC2)C1` the same measures were 1% and -0.09.
In the case of `O=C(Nc1ccc2c(c1)cc(C(=O)Nc1ccccc1)n2Cc1ccccc1F)c1cccc(F)c1`, the “% Inhibition” value was 7% and the Z score was -0.8.
For `O=C(c1ccc(NS(=O)(=O)N2CCOCC2)cc1)C1CCC1` the same measures were 8% and -1.01.
For `O=C(c1nn(-c2ccccc2F)cc1O)N1CCC(OC[C@H]2CCCO2)CC1` the same measures were -8% and 1.11.
`CC(C)n1nc(-c2ccco2)nc1[C@@H]1[C@H]2[C@@H]3CC[C@@H](C3)[C@@H]12`: the “% Inhibition” value is -1% and the Z score was found to be 0.23.
For `CC(=O)c1cccc(-n2cc(C3(S(N)(=O)=O)CCC3)nn2)c1` the same measures were 0% and -0.03.
For `COCCC(C)NC1CC2(CCOCC2)Oc2ccccc21` (stereo not drawn) the same measures were -1% and 0.17.
For `COc1ccc(OCC2CCN(Cc3c[nH]c(C)n3)CC2)cc1` the same measures were -13% and 2.28.
Take `COc1ccc(-c2ccc(N3CCN(C(=O)CN(CC4CC4)C(=O)NC(C)(C)C)CC3)nn2)c(OC)c1`: the “% Inhibition” value was found to be 3% and the Z score is on record as -0.38.
For `CCn1c(NS(C)(=O)=O)nc2cc(Cl)ccc21` the same measures were 9% and -1.06.
For `CCN1CCN(CCCN2CC3(CCN(Cc4cccc(C)c4)CC3)OC2=O)CC1` the same measures were -17% and 2.95.
For `CC1(C)CN(C(=O)CCc2c[nH]nn2)[C@H]2CCC[C@H]21` the same measures were 8% and -1.2.
Turning to `Cc1ccc(NS(=O)(=O)c2ccc(NC(=O)C3CCC3)cc2)cc1C`, the “% Inhibition” value is -13% and the Z score is reported as 1.14.
For `O=C(CC1C=CCC1)Nc1cc(C2CC2)nn1C1CCS(=O)(=O)C1` (stereo not drawn) the same measures were -5% and 0.7.
For the compound `CCc1nccn1CC(=O)N1CCN(c2ccc(C(=O)OC)cc2)CC1`, the “% Inhibition” value amounted to 11% and the Z score was -1.58.
On to `COc1ccc(CNC(=O)c2ccc(-c3nc4cccnc4n(C)c3=O)cc2)cc1OC`, for which the “% Inhibition” value is given as -5% and the Z score was found to be 0.8.
For `Cc1nc2cc(C[C@H]3CCCS(=O)(=O)C3)ccc2o1` the same measures were -9% and 1.14.
For `O=C1NC2(CCCC2)C(=O)N1C[C@H](O)COc1ccc(-c2ccccc2)cc1` the same measures were -4% and 0.61.
For `CC(C)(C)OC(=O)C[C@@H]1CCN(C(=O)Nc2ccccc2)C[C@@H]1CCN1CCC(C(N)=O)CC1` the same measures were -10% and 1.29.
As to `CCCc1nnc(NCc2cccn2C)o1`, the “% Inhibition” value is -2% and the Z score worked out at 0.28.
For `CCCn1cc(NC(=O)N(C)[C@H]2CCN(C)C2)nn1` the same measures were -4% and 0.54.
For `O=C(NC1CCCC1CCO)N[C@H]1CCOc2c(F)cccc21` (stereo partly drawn) the same measures were -29% and 3.41.
For `NC(=O)CN(CC(=O)NCCc1ccc(F)cc1)C1CCCC1` the same measures were 0% and -0.01.
In the case of `O=C(NC1CC2CCC1O2)N1CCC(Oc2ccc(F)cc2F)CC1` (stereo not drawn), the “% Inhibition” value is -8% and the Z score turned out to be 1.36.
For `Cn1ncnc1COc1ccccc1C(=O)NCc1ccccc1` the same measures were -5% and 0.95.
For `Cc1ccnn1CCCNC(=O)CCn1nc(C(F)(F)F)c(Cl)c1C` the same measures were 6% and -0.95.
Consider `CCCN1C(=O)COc2ccc(-c3csc(NC(=O)COc4ccc(Cl)cc4Cl)n3)cc21`, for which the “% Inhibition” value turned out to be 1% and the Z score was -0.12.
As for `CC(C)(CNc1ccc(Br)cc1C#N)C(N)=O`, the “% Inhibition” value was -8% and the Z score was found to be 0.91.
For `Cn1ncnc1NC(=O)N1CCC[C@H]1C1CCOCC1` the same measures were 1% and -0.2.
For `O=C1C[C@H](c2ccc3c(c2)OCO3)c2scc(-c3cccc(F)c3)c2N1` the same measures were -7% and 0.95.
For `COc1cc([C@H]2CC(=O)Nc3c(C(=O)O)cn(-c4ccccc4F)c32)ccc1O` the same measures were -38% and 4.44.
For the compound `CN1C(=O)CC[C@H](NC(=O)NCC2=CCCCC2)C1=O`, the “% Inhibition” value was 7% and the Z score is -0.94.
For `CCn1nccc1C(=O)N1CC[C@H](Oc2cccc(F)c2)C1` the same measures were -4% and 0.49.
For `COCc1cc(Cl)ccc1NC(=O)N1C2CCC1CC1(C2)CC1(F)F` (stereo not drawn) the same measures were 2% and -0.36.
For `Cc1ccc(CNC(=O)N2CCC[C@H]2c2ccc(C)s2)nc1` the same measures were -8% and 0.92.
With `CN1CC[C@H](NS(=O)(=O)c2cc(Cl)ccc2OCCC2CC2)CC1=O`, the “% Inhibition” value was -2% and the Z score amounted to 0.28.
For `Cc1c[nH]c(CN2CCC[C@H](c3nnc4ccccn34)C2)c(C)c1=O` the same measures were -3% and 0.66.
For `Cc1c(CNc2ncc(F)cn2)cnn1C` the same measures were -12% and 1.44.
For `CCCN(CCC)S(=O)(=O)c1c(C)n[nH]c1C` the same measures were -7% and 0.68.
`COc1ccc(-c2cc(C(F)F)c3c(C4CC4)nn(CC(=O)O)c3n2)cc1`: the “% Inhibition” value is on record as -28% and the Z score stood at 3.24.
For `CCN1CCC(Nc2ncnc3sc(C)c(C)c23)CC1` the same measures were 16% and -1.84.
For `CCc1nnc2n1CCN(C(=O)c1nc(OC(C)C)ccc1Cl)C2` the same measures were 0% and 0.09.
Take `O=C(c1ccc(F)c(F)c1F)N1CCC(n2cnc3ncccc3c2=O)CC1`: the “% Inhibition” value is -8% and the Z score came out at 1.07.
For `COCCOc1ncccc1NC(=O)N1CCC([C@@H]2CCCCO2)CC1` the same measures were -9% and 1.64.
For `Cc1cnc(C2CCOCC2)n1CC1CN(C(=O)c2cnccn2)C1` the same measures were -7% and 0.97.
For `c1coc(CC[C@@H]2NCCn3cccc32)c1` the same measures were 34% and -3.9.
Turning to `O=C(O)CCc1cc2n(n1)CCN(Cc1ccc([C@@H]3CCCO3)s1)C2`, the “% Inhibition” value is recorded as -20% and the Z score is 2.62.
For `Cn1cc(C(=O)N2CCCC[C@@H]2CN2CCCC2)c(=O)c2ccccc21` the same measures were -10% and 1.4.
For `O=C(Nc1ccc2[nH]ncc2c1)c1c[nH]nc1C1CC1` the same measures were -11% and 2.03.
For `CN(Cc1ccco1)C(=O)c1cccc(C(=O)N(C)Cc2ccco2)n1` the same measures were -15% and 1.99.
On to `CS(=O)(=O)NCCN(Cc1nc(-c2c(F)cccc2F)cs1)C1CC1`, for which the “% Inhibition” value is given as -6% and the Z score was 0.75.
For the compound `N#CCN(CC1CCC1)c1ccccc1`, the “% Inhibition” value is -7% and the Z score is given as 0.7.
Regarding `O=C(c1ccccc1)N1CCN(C(=O)N2CCOCC2)C1`, the “% Inhibition” value is reported as -1% and the Z score stood at 0.12.
Turning to `CN(C)CCc1nc(-c2ccc(-c3ccccc3)cc2)no1`, the “% Inhibition” value is on record as 9% and the Z score is reported as -1.76.
For `CC(=O)C1C(c2ccc(C(C)C)cc2)c2c(noc2C)CC1(C)O` (stereo not drawn) the same measures were 33% and -3.76.
For `COc1cccc(CN[C@H](c2ccccc2)c2n[nH]c(C)n2)c1OC` the same measures were -3% and 0.46.
For `C[C@@H](CCc1ccc(Br)cc1)NC(=O)Cn1cnnn1` the same measures were -2% and 0.29.
On to `COC(=O)[C@H]1CN(c2nccc(C(F)(F)F)n2)C[C@@H](C)O1`, for which the “% Inhibition” value is reported as -9% and the Z score was 0.96.
For `CCNC(=O)[C@H]1CCN(C(=O)c2ccc(-c3cnc(N)nc3)cc2)C1` the same measures were -11% and 1.78.
On to `O=C(Nc1cc(S(=O)(=O)N2CCCC2)ccc1Cl)c1cc(-c2ccc(-c3ccccc3)cc2)nc2ccccc12`, for which the “% Inhibition” value was -9% and the Z score is 1.69.
For `CS(=O)(=O)N(c1cccnc1-n1nc(C(F)(F)F)cc1C(F)(F)F)S(C)(=O)=O` the same measures were 0% and 0.05.
For `O=S(=O)(Nc1ccc(-c2cnc(C3CC3)o2)cc1)c1c(F)cccc1F` the same measures were 19% and -2.36.
Regarding `Cn1ccnc1CN(CCO)Cc1ccc(C2CCCC2)s1`, the “% Inhibition” value is -14% and the Z score was 1.89.
For `Cc1noc(CNC(=O)c2ccc3c(c2)OCO3)n1` the same measures were -10% and 1.47.
For `Cc1cccc(C2(C(=O)N3CC[C@](C)(CN)C3)CCCCC2)c1` the same measures were -26% and 3.03.
For `O=C(NC1CCc2c1ccc(Cl)c2Cl)C1COCCO1` (stereo not drawn) the same measures were 4% and -0.48.
Turning to `Cc1nc(C(C)C)ncc1C(=O)N1CC[C@H](Nc2ncccn2)[C@@H](O)C1`, the “% Inhibition” value is given as -6% and the Z score is recorded as 0.98.
For `CN(CC1CC=CCC1)C(=O)C1CC=CCC1C(=O)N1CCOCC1` (stereo not drawn) the same measures were -4% and 0.48.
On to `C[C@@H]1CC(=O)N[C@H](C(=O)Nc2cc(C3CC3)ccn2)C1`, for which the “% Inhibition” value is recorded as -7% and the Z score stood at 1.44.
For `Cc1nn(CCO)cc1-c1c(C)c([C@H]2CCOC(C)(C)C2)nc(N)c1C#N` the same measures were -12% and 1.68.
On to `CCCN(CCC)S(=O)(=O)NCCCN(C)c1ccccc1`, for which the “% Inhibition” value is reported as -5% and the Z score came to 0.62.
Regarding `Cc1ccc2nc(COc3ccccc3C(=O)[C@H](C#N)c3nc(C)cs3)cn2c1`, the “% Inhibition” value is -1% and the Z score is 0.25.
For `CNc1nc(C)cc(C(=O)NCc2nnc3ccccn23)n1` the same measures were -5% and 0.89.
